Measurements published in publication PMC8053111, “MKRN3-mediated ubiquitination of Poly(A)-binding proteins modulates the stability and translation of GNRH1 mRNA in mammalian puberty” (Nucleic Acids Research, 2021).
Read-outs that look alike come from different tables or passages of the source. Results are given in words; binding and its absence hold for the method and conditions named. For some of these results: Binding seen in cells or lysates may run through a third protein. Some results given as binding are weak or reduced against the parent protein; the word gives no strength. For some of these results: Where a sequence is shown, tags or fusion partners need not be part of it. Each block holds one molecule with its values, some of them ahead of it.

Amino acid sequences for entries named in this document (tags omitted).
UniProt P29341: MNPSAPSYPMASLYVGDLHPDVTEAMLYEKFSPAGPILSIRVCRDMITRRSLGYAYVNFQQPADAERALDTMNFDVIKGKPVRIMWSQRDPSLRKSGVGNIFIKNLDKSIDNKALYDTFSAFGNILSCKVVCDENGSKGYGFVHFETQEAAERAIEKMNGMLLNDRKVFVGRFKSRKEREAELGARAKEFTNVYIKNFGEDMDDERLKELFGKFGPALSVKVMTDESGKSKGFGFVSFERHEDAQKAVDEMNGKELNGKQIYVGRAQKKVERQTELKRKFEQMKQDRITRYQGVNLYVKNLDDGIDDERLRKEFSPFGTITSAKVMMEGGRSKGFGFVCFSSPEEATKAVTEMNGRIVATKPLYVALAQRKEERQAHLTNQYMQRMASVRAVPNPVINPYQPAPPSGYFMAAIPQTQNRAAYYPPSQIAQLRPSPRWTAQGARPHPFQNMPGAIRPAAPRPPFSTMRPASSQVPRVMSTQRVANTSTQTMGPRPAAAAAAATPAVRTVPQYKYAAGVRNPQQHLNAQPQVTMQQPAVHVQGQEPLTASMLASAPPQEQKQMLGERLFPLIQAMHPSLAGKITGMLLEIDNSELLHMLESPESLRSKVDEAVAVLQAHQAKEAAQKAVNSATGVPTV
UniProt P11940: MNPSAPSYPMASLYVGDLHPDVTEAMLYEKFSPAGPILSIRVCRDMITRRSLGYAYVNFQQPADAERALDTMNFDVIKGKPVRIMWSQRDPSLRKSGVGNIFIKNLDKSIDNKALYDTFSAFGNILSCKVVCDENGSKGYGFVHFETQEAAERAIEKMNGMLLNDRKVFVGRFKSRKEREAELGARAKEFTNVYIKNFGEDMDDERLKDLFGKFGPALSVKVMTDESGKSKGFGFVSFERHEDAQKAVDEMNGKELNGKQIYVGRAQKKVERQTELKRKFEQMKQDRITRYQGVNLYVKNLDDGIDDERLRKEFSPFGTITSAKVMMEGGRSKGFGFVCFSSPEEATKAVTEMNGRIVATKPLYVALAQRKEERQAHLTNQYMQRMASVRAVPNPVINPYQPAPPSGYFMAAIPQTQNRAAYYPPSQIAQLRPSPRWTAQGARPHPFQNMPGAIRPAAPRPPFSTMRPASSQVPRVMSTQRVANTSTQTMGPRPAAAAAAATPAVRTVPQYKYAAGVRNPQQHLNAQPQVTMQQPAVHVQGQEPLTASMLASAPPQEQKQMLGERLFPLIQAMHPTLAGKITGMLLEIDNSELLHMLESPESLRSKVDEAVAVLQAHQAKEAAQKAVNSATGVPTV
UniProt Q9H361: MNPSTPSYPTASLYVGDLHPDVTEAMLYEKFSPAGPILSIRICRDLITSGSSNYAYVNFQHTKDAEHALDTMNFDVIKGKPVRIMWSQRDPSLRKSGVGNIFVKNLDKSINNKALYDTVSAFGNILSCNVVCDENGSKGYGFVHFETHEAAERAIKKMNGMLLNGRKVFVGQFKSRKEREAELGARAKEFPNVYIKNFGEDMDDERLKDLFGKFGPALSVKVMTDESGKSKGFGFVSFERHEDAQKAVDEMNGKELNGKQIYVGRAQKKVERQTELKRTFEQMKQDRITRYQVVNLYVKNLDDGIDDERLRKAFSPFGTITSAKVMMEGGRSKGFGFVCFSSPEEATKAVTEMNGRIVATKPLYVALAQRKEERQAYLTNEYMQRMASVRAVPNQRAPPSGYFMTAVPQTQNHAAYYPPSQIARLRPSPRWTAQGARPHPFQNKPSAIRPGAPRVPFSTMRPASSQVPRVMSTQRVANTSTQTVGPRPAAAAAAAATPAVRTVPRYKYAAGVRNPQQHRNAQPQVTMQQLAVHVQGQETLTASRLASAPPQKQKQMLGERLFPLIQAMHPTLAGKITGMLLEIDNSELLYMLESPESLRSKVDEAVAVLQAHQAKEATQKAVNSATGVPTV
UniProt Q96DU9: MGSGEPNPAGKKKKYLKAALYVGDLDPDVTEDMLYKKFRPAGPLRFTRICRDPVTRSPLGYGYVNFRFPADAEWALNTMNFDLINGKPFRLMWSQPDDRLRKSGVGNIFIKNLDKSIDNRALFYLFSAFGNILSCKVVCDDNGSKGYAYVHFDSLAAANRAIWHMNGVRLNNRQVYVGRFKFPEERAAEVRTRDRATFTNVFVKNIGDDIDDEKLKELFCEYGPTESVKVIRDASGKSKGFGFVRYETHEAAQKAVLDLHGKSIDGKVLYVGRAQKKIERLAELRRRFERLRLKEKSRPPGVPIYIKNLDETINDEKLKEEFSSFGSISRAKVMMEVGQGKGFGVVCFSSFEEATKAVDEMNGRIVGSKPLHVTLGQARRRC
UniProt Q6NZJ6: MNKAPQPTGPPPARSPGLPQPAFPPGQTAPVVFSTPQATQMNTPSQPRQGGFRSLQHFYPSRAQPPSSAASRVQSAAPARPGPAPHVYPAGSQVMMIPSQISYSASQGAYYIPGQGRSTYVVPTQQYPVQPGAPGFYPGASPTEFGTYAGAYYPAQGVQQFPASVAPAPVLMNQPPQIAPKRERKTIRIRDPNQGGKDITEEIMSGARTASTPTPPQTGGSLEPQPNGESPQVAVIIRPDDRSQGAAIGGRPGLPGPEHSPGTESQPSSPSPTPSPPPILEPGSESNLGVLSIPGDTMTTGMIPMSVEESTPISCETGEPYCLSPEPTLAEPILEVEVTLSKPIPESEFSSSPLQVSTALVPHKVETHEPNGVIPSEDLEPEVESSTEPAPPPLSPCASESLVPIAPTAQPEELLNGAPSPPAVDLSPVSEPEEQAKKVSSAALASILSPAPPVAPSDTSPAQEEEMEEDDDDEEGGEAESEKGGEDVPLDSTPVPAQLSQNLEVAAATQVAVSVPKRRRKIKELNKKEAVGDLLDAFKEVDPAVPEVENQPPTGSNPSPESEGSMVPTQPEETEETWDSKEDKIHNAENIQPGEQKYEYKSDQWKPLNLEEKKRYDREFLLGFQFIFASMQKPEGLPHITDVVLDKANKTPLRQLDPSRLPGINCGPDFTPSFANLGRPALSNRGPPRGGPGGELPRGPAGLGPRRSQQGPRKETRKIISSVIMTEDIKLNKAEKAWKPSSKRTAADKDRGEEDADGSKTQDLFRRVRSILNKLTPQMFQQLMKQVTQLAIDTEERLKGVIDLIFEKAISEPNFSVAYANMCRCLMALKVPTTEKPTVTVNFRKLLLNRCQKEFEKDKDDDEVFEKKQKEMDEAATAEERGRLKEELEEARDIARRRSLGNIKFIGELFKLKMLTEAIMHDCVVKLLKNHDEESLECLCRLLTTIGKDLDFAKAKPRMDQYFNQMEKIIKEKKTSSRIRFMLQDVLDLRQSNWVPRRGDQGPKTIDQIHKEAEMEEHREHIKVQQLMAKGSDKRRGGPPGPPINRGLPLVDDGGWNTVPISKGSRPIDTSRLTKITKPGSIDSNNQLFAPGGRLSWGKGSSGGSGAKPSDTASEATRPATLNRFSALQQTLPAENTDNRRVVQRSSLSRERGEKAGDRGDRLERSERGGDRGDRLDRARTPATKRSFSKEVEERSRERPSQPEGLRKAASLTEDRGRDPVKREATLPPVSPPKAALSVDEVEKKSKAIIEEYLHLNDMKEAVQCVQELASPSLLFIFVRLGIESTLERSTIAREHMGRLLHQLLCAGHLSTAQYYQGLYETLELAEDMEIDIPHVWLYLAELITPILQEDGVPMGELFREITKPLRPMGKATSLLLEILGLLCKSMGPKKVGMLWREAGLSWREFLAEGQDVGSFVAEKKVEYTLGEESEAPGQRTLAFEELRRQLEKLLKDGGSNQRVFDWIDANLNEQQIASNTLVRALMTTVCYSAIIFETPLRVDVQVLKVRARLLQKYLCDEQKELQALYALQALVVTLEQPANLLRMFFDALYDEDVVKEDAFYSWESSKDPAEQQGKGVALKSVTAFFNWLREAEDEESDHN

Key:
[1] = molecular target: T1, 3XMyc tagged MKRN3 (human) (UniProt Q13064); test: co-IP; MKRN3 and PABP co-expressed in HEK293T; lysates in COIP buffer (50 mM Tris-HCl, 150 mM NaCl, 5 mM EDTA, 1% NP-40, pH 7.6) with or without RNaseA (50 μg/ml); anti-Myc antibody, immunoblot with anti-Myc or anti-Flag
T1 sequence: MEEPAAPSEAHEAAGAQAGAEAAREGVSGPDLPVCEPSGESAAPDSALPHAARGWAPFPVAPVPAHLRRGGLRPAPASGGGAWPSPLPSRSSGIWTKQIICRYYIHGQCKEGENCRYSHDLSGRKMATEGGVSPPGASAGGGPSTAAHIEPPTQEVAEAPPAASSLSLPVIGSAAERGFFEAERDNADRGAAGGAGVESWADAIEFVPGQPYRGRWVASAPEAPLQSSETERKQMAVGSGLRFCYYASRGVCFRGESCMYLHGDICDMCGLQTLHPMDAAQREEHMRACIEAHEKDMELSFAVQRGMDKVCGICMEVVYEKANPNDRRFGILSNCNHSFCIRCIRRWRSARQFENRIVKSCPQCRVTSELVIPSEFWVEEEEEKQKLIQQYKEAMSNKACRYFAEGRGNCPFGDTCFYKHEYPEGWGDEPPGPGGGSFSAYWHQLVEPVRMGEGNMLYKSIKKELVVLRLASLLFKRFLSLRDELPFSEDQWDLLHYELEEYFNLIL

[2] = molecular target: T2, Gst-MKRN1 (UniProt Q9UHC7); test: pull-down; GST pull-down: 20 μg purified Gst-MKRN or MKRN3 truncation, 20 μg PABP-His6 or truncation and Glutathione Sepharose 4B, 4°C overnight in 500 μl of 20 mM Tris-Cl, 100 mM NaCl, 5 mM MgCl2, 1 mM EDTA, 1 mM DTT, 0.5% NP-40, 10 μg/ml BSA, pH 7.5; five washes; Coomassie staining and anti-His immunoblot; both purified
T2 sequence: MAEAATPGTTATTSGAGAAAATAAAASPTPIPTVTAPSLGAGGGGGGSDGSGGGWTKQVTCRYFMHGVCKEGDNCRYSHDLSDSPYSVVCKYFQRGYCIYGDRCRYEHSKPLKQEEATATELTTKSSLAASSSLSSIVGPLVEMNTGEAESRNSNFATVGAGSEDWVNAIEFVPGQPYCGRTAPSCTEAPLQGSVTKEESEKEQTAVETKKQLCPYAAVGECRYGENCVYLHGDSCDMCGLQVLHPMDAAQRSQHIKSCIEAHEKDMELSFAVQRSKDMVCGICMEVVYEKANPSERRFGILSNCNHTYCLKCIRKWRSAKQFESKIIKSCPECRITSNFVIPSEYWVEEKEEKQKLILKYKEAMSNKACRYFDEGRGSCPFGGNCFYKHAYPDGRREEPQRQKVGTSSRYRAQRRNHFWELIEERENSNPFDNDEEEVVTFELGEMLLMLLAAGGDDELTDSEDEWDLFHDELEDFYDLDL

[3] = molecular target: T3, recombinant Gst-tagged MKRN3 (human) (UniProt Q13064); test: as above
T3 sequence: T1 sequence

[4] = molecular target: endogenous PABPC1 (mouse hypothalamus) (mouse (endogenous in hypothalamus)) (UniProt P29341); test: co-IP; endogenous proteins; hypothalamic lysates of mice at postnatal day 15 (wild-type; for EIF4G1 also Mkrn3 m+/p- mice), with or without RNaseA (50 μg/ml); precipitated with anti-PABPC1 antibody (anti-IgG as control), immunoblot
[5] = molecular target: endogenous PABPC1 (mouse hypothalamus) (mouse (endogenous in hypothalamus)) (UniProt P29341); test: as above; remark: listed apart in the source

binding [1]: binds
Molecule: Flag-tagged PABPC1 (from UniProt P11940 1-636)

binding [1]: binds
Molecule: Flag-tagged PABPC3 (from UniProt Q9H361 1-631)

binding [2]: binds
Molecule: PABPC1-His6 (from UniProt P11940 1-636)

Molecule: PABPC5-His6 (from UniProt Q96DU9 1-382)
binding [3]: no binding (tested: 20 μg of each protein in 500 μl)

binding [4]: binds
Molecule: endogenous EIF4G1 (mouse hypothalamus) (from UniProt Q6NZJ6 1-1600)

binding [1]: no binding
B1: exogenously expressed PABPN1 (protein, UniProt Q86U42 1-306)
chain: MAAAAAAAAAAGAAGGRGSGPGRRRHLVPGAGGEAGEGAPGGAGDYGNGLESEELEPEELLLEPEPEPEPEEEPPRPRAPPGAPGPGPGSGAPGSQEEEEEPGLVEGDPGDGAIEDPELEAIKARVREMEEEAEKLKELQNEVEKQMNMSPPPGNAGPVIMSIEEKMEADARSIYVGNVDYGATAEELEAHFHGCGSVNRVTILCDKFSGHPKGFAYIEFSDKESVRTSLALDESLFRGRQIKVIPKRTNRPGISTTDRGFPRARYRARTTNYNSSRSRFYSGFNSRPRGRVYRGRARATSWYSPY

binding [5]: binds
B2: endogenous Mkrn3 (mouse hypothalamus) (protein, UniProt Q60764 1-544)
chain: MEESTAPIEAHAAAGAEAGAEGGEGVSVPPPPQFEAAGASAGVSSAPLQQASGLAPLLVTPGPAIRRAASLRPAPAEGGGARSGPERNSGSWTKQILCRYYLHGQCKEGDNCRYSHDLSGRRRSRGGQDAQPRASADRGPKMATRWEPPTQEVAEAPPAASSSSLPLIGSAAERGFTEAEIDNAGIRSAAERGFSEAEIDNASLAAGAAAGAGAEGWEGAIEFVPGQPYRGRMVPPHGPEAPLQSPAIEREHMAMGMGMPMPVPMPMPVPMPVPMPLPLCRYAARGQCLRGDRCAYPHGEICDMCGQQALHPWDAAQQEAHRRACVEAHERDMELSFAVQRSMDKVCGICMEVVYEKADPSDRRFGILFSCNHTYCLRCIRRWRSATQFENRISKSCPQCRVSSGFVIPSEFWVEEEEEKEKLVQQYKEGMSQKACRYFAGGLGHCPFGEFCFYKHEYPEGWRDQPPRPDGGGSSSAYWHQVLEPVQLREGNVLFKSRKKEHSVLRLANQLLKKLLCLRGSSSFSDDRWLLLQYQLEEYFSLNL
